# Test results as given in PubChem BioAssay (Tox21).
# Where “and” joins values, the source holds several entries; their conditions need not be identical. Equal values may be shown once. Inconclusive results, whose numbers are uncertain, are shown with a selection of clear calls. For some of these results: Potencies beside an inconclusive call are fits to weak or partial responses and may not hold up. The source holds several records for some structures; these can differ, active in one and inactive in another. Calls of active or inactive are those of the source. Unless noted, the call rests on the fitted dose curve; in most records, active means well fitted curve in the direction sought with a large enough effect in the repeat runs; inconclusive means weak or mixed curves; inactive means no such curve, though single readings can be large; an effect the other way counts as inactive or inconclusive.
# Experiments:
# [1] = qHTS assay to identify small molecule agonists of the retinoic acid receptor (RAR) signaling pathway (AID 1159553); conditions: C3RL4 RARE luciferase reporter, agonist, 6 h; further: potency means the concentration at half of the fitted maximal effect; on activation: on the % scale 0 is the no-effect control and ±100 the full control effect
# How it was run: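 Quantitative high-throughput format: the Tox21 10K library was tested on C3RL4 RARE-luciferase cells for 6 hr at 37 C and 5% CO2, with luminescence measured after a 30 min room-temperature reagent step.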
# [2] = qHTS assay to identify small molecule agonists of the constitutive androstane receptor (CAR) signaling pathway - cell viability counter screen (AID 1224836); further: potency means the concentration at half of the fitted maximal effect; nearly all actives have a fitted effect of over 45% in size
# How it was run: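 Cell viability multiplexed with the CAR agonist screen: CellTiter-Fluor fluorescence after 23 hr at 37 C. HepG2-CYP2B6-hCAR cells got compounds at 15 concentrations with PK11195 at 0.75 uM final.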
# [3] = molecular target: Nuclear receptor subfamily 1 group I member 3 (Homo sapiens) (UniProt Q14994); assay: qHTS assay to identify small molecule agonists of the constitutive androstane receptor (CAR) signaling pathway (AID 1224839); further: nearly all actives have a fitted effect of over 15% in size; further: potency means the concentration at half of the fitted maximal effect;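 on activation: HepG2 cells stably carrying human CAR and a CYP2B6 luciferase reporter; on the % scale 0 is the no-effect control and ±100 the full control effect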
# How it was run: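 Luminescent ONE-Glo read-out after 24 hr, 37 C exposure of double-stable HepG2-CYP2B6-hCAR reporter cells to a 15-point compound series, in the presence of 0.75 uM PK11195 (final).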
# [4] = molecular target: Thyrotropin receptor (Homo sapiens) (UniProt P16473); assay: qHTS assay to identify small molecule agonists of the thyroid stimulating hormone receptor (TSHR) signaling pathway (AID 1224843; calls by dose curve; further: on the % scale 0 is the no-effect control and ±100 the full control effect; nearly all actives have a fitted effect of over 45% in size); conditions: TSHR-HEK293 cells, cAMP HTRF, agonist mode, 30 min; activation: at 92.4 µM (top of the series) unless noted
# How it was run: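 Using 15 concentrations per compound in triplicate, cAMP production was monitored in TSHR-HEK293 cells after 30 min compound incubation at RT; HTRF reagents followed, with fluorescence intensity recorded after 1 h.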
# [5] = qHTS assay to identify small molecule antagonists of the estrogen related receptor (ERR) signaling pathway - cell viability counter screen (AID 1224818);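 further: potency means the concentration at half of the fitted maximal effect; viability measured after 17.5 h of compound exposure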
# How it was run: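 Quantitative high-throughput viability counter screen in ERR cells. Compounds (DMSO) incubated 17.5 h at 37 C; read-out was CellTiter-Fluor fluorescence.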
# [6] = qHTS assay to identify small molecule antagonists of the estrogen related receptor signaling pathway with the pleiotropic PPARgamma coactivator (PGC) cell viability counter screen (AID 1224822; further: potency means the concentration at half of the fitted maximal effect)
# How it was run: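 Cytotoxicity in the PGC/ERR cell line is assessed with CellTiter-Fluor, read as fluorescence intensity 30 min after reagent addition, following 17.5 h compound treatment at 37 C.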
# [7] = qHTS assay to identify small molecule antagonists of the estrogen related receptor (ERR) signaling pathway from Tox21 library - cell viability counter screen (AID 1224834); further: potency means the concentration at half of the fitted maximal effect; nearly all actives have a fitted effect of over 30% in size
# How it was run: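 Compounds in DMSO were pinned onto ERR cells that had been incubated for 6 h, and the plates were held at 37 C for 17.5 h. CellTiter-Fluor reagent was then added and fluorescence was measured after 30 min.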
# [8] = qHTS assay to identify small molecule antagonists of the constitutive androstane receptor (CAR) signaling pathway - cell viability counter screen (AID 1224837); further: potency means the concentration at half of the fitted maximal effect; nearly all actives have a fitted effect of over 45% in size
# How it was run: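 Cells are seeded, rested 4 hr at 37 C/5% CO2, dosed with compound (15-point series) and 50 nM CITCO, incubated a further 23 hr, and then CellTiter-Fluor reagent is added before fluorescence is read. The line is HepG2 with stable hCAR and CYP2B6-2.2kb.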
# [9] = qHTS assay to identify small molecule antagonists of the estrogen related receptor signaling pathway with the pleiotropic PPARgamma coactivator (PGC) from Tox21 10K library - cell viability counter screen (AID 1224840; active means well fitted cell-killing curve with a large enough effect in the repeat runs, not every such curve was filed as active; inconclusive means weak or mixed curves, or effect the other way; inactive means no such curve, though single readings can be large or run the other way; further: potency means the concentration at half of the fitted maximal effect; nearly all actives have a fitted effect of over 40% in size)
# How it was run: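 Cell viability is measured by CellTiter-Fluor fluorescence in PGC/ERR cells that receive compounds after a 6-hour attachment period and are then incubated 17.5 hours at 37 C.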
# [10] = qHTS assay to identify small molecule agonists of the hypoxia (HIF-1) signaling pathway - cell viability counter screen (AID 1224844; calls by dose curve; further: potency means the concentration at half of the fitted maximal effect; nearly all actives have a fitted effect of over 50% in size)
# How it was run: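 Viability counter screen: HRE-bla ME-180 cells plated 5 hrs before compound addition, treated 17 hrs at 37C and 5% CO2, then CellTiter-Glo added after the FRET reporter read; luminescence after 30 min.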
# [11] = qHTS assay to identify small molecule antagonists of the retinoic acid receptor (RAR) signaling pathway (AID 1159552; further: nearly all actives have a fitted effect of over 50% in size; further: potency means the concentration at half of the fitted maximal effect)
# How it was run: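 Luminescent RARE reporter read-out in C3RL4 cells: 6 hr co-treatment at 37 C of test compounds with retinol at 1 uM final. Cells plated overnight beforehand; luciferase reagent incubated 30 min at room temperature before reading.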
# [12] = molecular target: Nuclear receptor subfamily 1 group I member 3 (Homo sapiens) (UniProt Q14994); assay: qHTS assay to identify small molecule antagonists of the constitutive androstane receptor (CAR) signaling pathway (AID 1224838);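 further: HepG2 cells stably expressing hCAR with CYP2B6 luciferase reporter stimulated by CITCO; potency means the concentration at half of the fitted maximal effect; nearly all actives have a fitted effect of over 40% in size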
# How it was run: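 Luminescence from a CYP2B6-2.2kb promoter reporter in hCAR-expressing HepG2 cells reflects CAR signaling. Cells received compounds at 15 concentrations and 50 nM CITCO (final), then incubated 24 h at 37 C/5% CO2.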
# [13] = qHTS assay to identify small molecule antagonists of the estrogen related receptor signaling pathway with the pleiotropic PPARgamma coactivator (PGC) from Tox21 10K library (AID 1224841; call rule not given here; further: potency means the concentration at half of the fitted maximal effect; actives are mostly falling curves and most rising ones were filed inactive; nearly all actives have a fitted effect of over 50% in size)
# How it was run: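 Cells stably carrying the PGC/ERR reporter, seeded at 2,000 per well, received pin-transferred compounds 6 h post-plating. Exposure lasted 18 h at 37 C. Signal: One-Glo luminescence.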
# [14] = activation: at 73.3 µM (top of the series) unless noted
# Tags describe the fitted curve by direction and shape.
# Sequence of UniProt Q14994 (Q14994 whole entry, looked up): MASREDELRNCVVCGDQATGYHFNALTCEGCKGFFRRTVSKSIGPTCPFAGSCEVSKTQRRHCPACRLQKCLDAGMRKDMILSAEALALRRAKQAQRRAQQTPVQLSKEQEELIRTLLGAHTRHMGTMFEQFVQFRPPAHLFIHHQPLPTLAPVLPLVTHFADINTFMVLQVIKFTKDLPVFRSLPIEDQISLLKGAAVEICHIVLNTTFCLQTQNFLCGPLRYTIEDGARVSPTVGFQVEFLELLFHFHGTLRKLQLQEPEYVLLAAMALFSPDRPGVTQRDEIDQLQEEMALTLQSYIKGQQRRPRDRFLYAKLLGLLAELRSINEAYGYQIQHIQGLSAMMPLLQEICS
# Sequence of UniProt P16473 (P16473 whole entry, looked up): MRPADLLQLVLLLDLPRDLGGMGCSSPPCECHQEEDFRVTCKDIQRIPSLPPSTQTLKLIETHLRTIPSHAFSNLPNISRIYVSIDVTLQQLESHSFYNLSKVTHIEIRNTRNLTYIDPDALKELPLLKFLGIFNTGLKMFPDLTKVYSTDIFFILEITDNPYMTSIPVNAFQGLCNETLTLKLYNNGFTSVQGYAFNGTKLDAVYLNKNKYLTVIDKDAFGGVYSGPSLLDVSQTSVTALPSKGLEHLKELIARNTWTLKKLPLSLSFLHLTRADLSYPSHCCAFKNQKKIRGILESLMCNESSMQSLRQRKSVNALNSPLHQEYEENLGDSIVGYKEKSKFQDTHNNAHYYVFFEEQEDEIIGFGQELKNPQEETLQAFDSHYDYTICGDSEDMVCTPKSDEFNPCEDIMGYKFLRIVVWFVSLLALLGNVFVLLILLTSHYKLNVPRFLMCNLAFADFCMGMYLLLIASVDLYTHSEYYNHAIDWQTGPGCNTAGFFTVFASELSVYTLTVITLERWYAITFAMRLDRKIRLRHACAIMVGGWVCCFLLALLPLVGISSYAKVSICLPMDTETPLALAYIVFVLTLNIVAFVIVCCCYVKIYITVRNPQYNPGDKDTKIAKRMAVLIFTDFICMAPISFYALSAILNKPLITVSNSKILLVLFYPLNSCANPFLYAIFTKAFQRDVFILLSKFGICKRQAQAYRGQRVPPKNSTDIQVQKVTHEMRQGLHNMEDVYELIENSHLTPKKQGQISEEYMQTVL
compound,measurement,setting,value
O=P(O)(O)O,Potency,[1]; [14],inactive
O=C(c1ccc(O)cc1O)c1ccc(O)cc1O,Potency,[1]; [14],"inconclusive: 68.6 µM [activator, partial curve, poor fit]"
same,activation,[1]; [14],inconclusive: 8.69% [phenotype inactive]
same,Potency,[2],"inconclusive: 68.7 µM [cytotoxic, partial curve, poor fit]"
same,Potency,[3],"inconclusive: 27.3 µM [activator, partial curve]"
same,Potency,[4],inactive
Cc1ccc2nc(-c3ccc(N)cc3)sc2c1S(=O)(=O)O,Potency,[1]; [14],active: 0.426 µM
CC/C(=C(\c1ccccc1)c1ccc(OCCN(C)C)cc1)c1ccccc1,Potency,[1]; [14],"inconclusive: 48.5 µM [inhibitor, partial curve] [middle of 5 runs]"
same,Potency,[5],inconclusive: 31 µM [cytotoxic]
same,Potency,[6],active: 27.6 µM and inconclusive: 24.6 µM [cytotoxic]
same,Potency,[7],"inconclusive: 27.5 µM [cytotoxic, single point] and inconclusive: 33.5 µM [cytotoxic, single point]"
same,Potency,[2],"inconclusive: 69 µM [cytotoxic, single point]"
same,Potency,[8],"inconclusive: 33.5 µM [cytotoxic, single point]"
same,Potency,[9],inconclusive: 29.8 µM [cytotoxic]
same,activation,[4],inconclusive: -7.32% and inconclusive: -31.3% and inconclusive: -0.975%
same,Potency,[10],"inconclusive: 26.8 µM [cytotoxic, single point]"
O=C1CCCCCN1,Potency,[1]; [14],inactive
CC(O)C(=O)O (stereo unspecified),activation,[1]; [14],inconclusive: 0.155% [phenotype inactive] [at 94.8 µM]
same,activation,[1]; at 73.3 µM (top of the series),inactive: 1.47% [middle of 4 runs]
same,Potency,[3],inactive
CC(C)(c1cc(Br)c(OCCO)c(Br)c1)c1cc(Br)c(OCCO)c(Br)c1,Potency,[11],"inconclusive: 37.7 µM [inhibitor, partial curve]"
same,Potency,[7],active: 42.3 µM
same,Potency,[2],inconclusive: 53.3 µM [cytotoxic]
same,Potency,[8],"inconclusive: 42.3 µM [cytotoxic, partial curve]"
same,Potency,[3],"inconclusive: 53.3 µM [activator, single point]"
same,Potency,[9],active: 42.3 µM
Nc1cc(Cl)c(-c2cc(Cl)c(N)cc2Cl)cc1Cl,Potency,[11],"inconclusive: 6.85 µM [inhibitor, partial curve] and inconclusive: 2.73 µM [inhibitor, full curve]"
same,Potency,[2],"inconclusive: 34.3 µM [cytotoxic, partial curve] and inconclusive: 48.6 µM [cytotoxic, partial curve]"
same,Potency,[8],"inconclusive: 54.4 µM [cytotoxic, partial curve] and inconclusive: 54.5 µM [cytotoxic, partial curve, poor fit]"
same,Potency,[12],active: 13.7 µM and active: 27.3 µM
same,Potency,[9],"inconclusive: 34.3 µM [cytotoxic, partial curve] and inconclusive: 30.6 µM [cytotoxic, partial curve]"
same,Potency,[13],"inconclusive: 76.9 µM [falling, single point] and inconclusive: 77 µM [falling, single point]"
same,Potency,[10],"active: 38.9 µM and inconclusive: 54.9 µM [cytotoxic, single point]"
C=C1C[C@H]2[C@@H]3C=C(C)C4=CC(=O)CC[C@]4(C)[C@H]3CC[C@]2(C)[C@@]1(OC(C)=O)C(C)=O,Potency,[11],inactive
same,Potency,[7],"inconclusive: 31.3 µM [cytotoxic, partial curve] and inconclusive: 33.5 µM [cytotoxic, single point]"
same,Potency,[8],"inconclusive: 39.4 µM [cytotoxic, partial curve, poor fit]"
CC(C)Oc1ccc2c(=O)c(-c3ccccc3)coc2c1,Potency,[1]; [14],active: 0.335 µM
Cc1cc(Cc2ccc(N)c(C)c2)ccc1N,activation,[1]; [14],inconclusive: 0.474% [phenotype inactive]
same,activation,[1]; at 73.3 µM (top of the series),inactive: 2.59%
same,Potency,[7],"inconclusive: 54.5 µM [cytotoxic, partial curve, poor fit]"
same,Potency,[3],"inconclusive: 68.6 µM [activator, single point] and active: 48.6 µM"
Cc1cc(O)c(Cl)c(C)c1Cl,Potency,[1]; [14],"inconclusive: 68.6 µM [inhibitor, partial curve, poor fit]"
CCCN(CCC)C(=O)C(CCC(=O)OCCCN1CCN(CCOC(=O)Cc2c(C)n(C(=O)c3ccc(Cl)cc3)c3ccc(OC)cc23)CC1)NC(=O)c1ccccc1 (stereo unspecified),Potency,[11],"inconclusive: 33.5 µM [inhibitor, partial curve, poor fit]"
same,Potency,[7],active: 23.7 µM
same,Potency,[9],"inconclusive: 26.6 µM [cytotoxic, partial curve]"
same,Potency,[10],active: 19 µM
